Data reported in the RNAGym collection of RNA variant scans (doi:10.7554/elife.90254).
The source gives no read counts; variants with many changes may rest on few reads.

B1: LINE1-full (parent)
chain: UACGUAGGUGGUUUUCCCCUGAUAGUGCUAAGGGGGCCUGGAAGUUUGGACUGGGCAGAGCUCAACACAGCGUGGCAAAGUGGCUGUGGCUAGACUGCCUCUCUGGAUUCCUCGUCACUCAGCAGGGCAUCUCUGAGAGAAAUGCC

Variants of: B1
Experiment: self-cleavage, relative activity (ratio to wild type); higher = more cleavage; in vitro, sequencing; the parent is a self-cleaving ribozyme

| Variant | self-cleavage |
| --- | --- |
| A22U C63U A67G | 0.19 |
| U26C A42G C131A | 2.03 |
| U14A A65C A124G | 0.06 |
| A50G U85A U104C | 0 |
| A42G G74A G93A | 0.05 |
| U62A G106A A129G | 0.04 |
| U13A G27A A77U | 0.72 |
| G4A U87A A121C | 0.09 |
| U115A A124G A142G | 1.07 |
| G4A U9C U108C | 1.18 |
| U96A A136G A142G | 0.14 |
| C37U U104A A142G | 0.71 |
| U5G G83U G114A | 0.44 |
| A43G U81A A142G | 1.94 |
| U91C U115A U132C | 1.28 |
| U26A U85C U96A U109A | 0.15 |
| G93A U100C U132A | 0.05 |
| U14G A42G A94G | 0 |
| U12C A31G G34C U96C U115C C120U A138G | 0 |
| U20A U26C C63U G97U | 0.32 |
| U12C U14C U85G | 0.47 |
| U20C U39A U46A U85C A92U A140G | 0.08 |
| U9A U45A U91C U100C A140G | 1.77 |
| A24G A69G U73A | 0.37 |

| Variant | self-cleavage |
| --- | --- |
| U14A U20C A69G | 0 |
| U45C A78G U102A U108C | 0 |
| U26C U119C C133A U134G | 1.08 |
| U14C U45A A77G A94U G126C | 0.54 |
| A57G A78G U81A U102A U119C G137A | 0.26 |
| G4A U109C U130C A140G | 1.12 |
| A43G A77G U112C U130C | 2.12 |
| U9C U20C U29C G54U A78G U109C U130A | 0 |
| A64U U73C U112A U115C | 0.61 |
| G25A U87C U130C U143A | 0 |
| U15C G54U U115G | 0.58 |
| U47C U96C A138G | 0.15 |
| U23A C71U C90A G137U U143C | 0.02 |
| U15C A50G G55A A79U | 0.1 |
| U14C G88A U112C A138C C145A | 0.04 |
| A50G U73A U81A A92U | 0.26 |
| U73C A78G U104A | 1.48 |
| A42G A77G U85C | 0 |
| A79G U115A U132C | 1.25 |
| U23C A50G G106U | 0.89 |
| G33A U81C U134G | 1.42 |
| A42C U46C A121C | 0 |
| A94G A138G A142G | 0.43 |
| U9C U15C U20A | 1.42 |

| Variant | self-cleavage |
| --- | --- |
| C18U U45C U109A U115G G122A | 1.25 |
| U13C G49A A69U U85A | 0.17 |
| G11A U13C U52A A57U A69U A77U | 0.04 |
| G34A U62C U87A U102C U132A | 0.04 |
| A67G C113U A142G | 0.32 |
| U14C A30G C51G U100C | 0.9 |
| G8C U14C A142G | 0.82 |
| G27A A50G U119A | 0.73 |
| U20G U29C A57G A65G | 1.53 |
| U29C A59G U73A U112C U143C | 0 |
| U52C A67U U115A A121U C123U | 0.04 |
| U15A A69U C118A A121G A124G | 0.08 |
| U15G A31G U39C U46C A77G | 0 |
| C3U A24U A57G A79G | 0 |
| U9A U13A U87A U119G | 0.13 |
| U39C A117U A121C A136G U143C | 1.79 |
| A6U A50G A65G G88A A94G U112C A124G | 0 |
| U47A A65G A92G U109C | 0 |
| A50G C63U U91A U134C | 0.06 |
| U15A G21A G60C U132C U143A | 0 |
| A2G U12C U15A A30U A50G G86A U100C | 0 |
| A6G U85C A141G | 0.4 |
| U39A A50G U62C A121G A142G | 0 |
| U14A C84U A117C | 0.18 |

| Variant | self-cleavage |
| --- | --- |
| G36A U45C A69G U102C | 1.84 |
| A22U G35A A78G C99U U112C A140G A141G | 0.21 |
| U52C U102C A107U | 0.77 |
| G25A U73A A77G A79U | 2.73 |
| G32U A67U U87A U134G A136G A141G | 1.04 |
| U20C U45A A129U | 1.23 |
| A2G U9C U29G | 0 |
| U13C U45A U73C U96C U134C A140G | 0 |
| A42U U46C U115C | 2.07 |
| U12C A42G A50G A136G | 1.31 |
| A2G U13C U46A G105A U119C A141G | 1.32 |
| U13C U45G C131U U143A | 1.39 |
| G25A U87A U132C | 0.09 |
| U115A U134A A140G | 0.55 |
| U14A A42U U85C | 0.02 |
| U12C U134C A138G | 0 |
| A2C U14A U45C C101A | 0.56 |
| U47C A50G A140G | 0.61 |
| U26A U39C A107G | 0.71 |
| U13C U26A C76U | 1.92 |
| U9C U20A A65G | 0.45 |
| U15C U73C A78G A142U | 1.75 |
| U5C A6G U13C A42U | 0.61 |
| A6G U115A U132C | 1.11 |

| Variant | self-cleavage |
| --- | --- |
| U14C A43C A121U U132C U143A | 2.23 |
| A78G U85C U100C U134A | 0 |
| U45C C113U A124G | 1.35 |
| U47C A69G C103U | 0.35 |
| U1C U87A U143C | 0 |
| A57G U73C C103A | 0 |
| A6G U23C G27A U102C | 1.31 |
| G36A A50U U96G | 0.05 |
| A77U G114A A124U | 1.36 |
| U12C A69G U134G | 0.28 |
| U9A A77G A92G U134C | 0 |
| U12G U13C U14C A65G G88A | 0.32 |
| U20C U52A A57C U130C | 0 |
| U9A U20C A50U A77G | 1.5 |
| A2G U46C A50G A117U | 0.35 |
| A2G A57G A107U | 0.98 |
| G44U U52A U81C U108C | 1.59 |
| U52A U73A U132C | 2.1 |
| U12C A64G U85A U134C | 0.16 |
| A2G U47A G80C | 0.78 |
| U73A A78G U108C | 0.38 |
| U45C U62A A67G U115A A141G | 0 |
| A2U A65G A124G | 0.39 |
| U85C U102C G135U | 0.23 |

| Variant | self-cleavage |
| --- | --- |
| U13C U14A U100C G139A | 1.26 |
| A22G U39A U52C | 0.82 |
| G44U U91A A92U U104G | 0.68 |
| A69G U112C U115A | 1.21 |
| A6G A69U G89C U91C A142G | 0 |
| G36U A77G U130C | 2.56 |
| G54A A129U U143C | 0.73 |
| A43G A57G U104A A117U U132A A140U | 0.19 |
| U14A G35U A59G U112A A121U | 0.04 |
| U47A A59U A78G | 0.71 |
| U26A G44A U100A | 0.57 |
| G41A A59G U102G G105A | 0.1 |
| U39A A129U U134A | 0.62 |
| U12C A30U G49U A77G | 0.89 |
| U14C U23C U73C | 1.72 |
| C19U A59U U85C U132C | 0.24 |
| U9C G33A U102C G135U | 1.21 |
| U9C U52A U143C | 0.97 |
| U20A G32U U39C A142G | 0.98 |
| U12C U20G A42G U52A A141G | 1.47 |
| U9C U15G U62A U112C | 0 |
| U52A U108C A121U | 1.93 |
| U13A U62C U102A | 0.02 |
| U12C U47G A65G A141G | 0 |

| Variant | self-cleavage |
| --- | --- |
| U45A A78G G135A | 1.13 |
| U9A U15C A67G A117U | 0.46 |
| A79G U96A U104G | 0.48 |
| G8A U9C A22U | 2.6 |
| A42G A78U A121G | 1.71 |
| A30G A64G A138G | 1.38 |
| U15A U62C U119C A124U A140G A142G | 0 |
| A67G U73A U100C G135U | 0.94 |
| A57G U62C G105A | 0.03 |
| A57G G86A A94G U108C | 0 |
| A59G U100C C113U | 0.07 |
| U13A G35A U109A | 0.39 |
| U20C A65G A94G C101A A124G U143C | 0 |
| U26C U47C A124U A142G | 1.71 |
| A42G U115C G144A | 2.36 |
| U13A G34A U115A | 0.6 |
| G7U U14C U29A | 1.15 |
| U62A A77G U104C | 0.06 |
| U1C A24U U109C | 0.38 |
| U20C C28G A69G | 0.22 |
| G49A A69G A94G U104A A124U | 0 |
| U73A U85C U104G | 0 |
| U73A U115C U134C | 2.02 |
